Measured values taken from PMC12136788.
Some of the results follow.

T1: UNK ZnF1-3 (human, UniProt Q9C0B0 31-174)
T1 sequence: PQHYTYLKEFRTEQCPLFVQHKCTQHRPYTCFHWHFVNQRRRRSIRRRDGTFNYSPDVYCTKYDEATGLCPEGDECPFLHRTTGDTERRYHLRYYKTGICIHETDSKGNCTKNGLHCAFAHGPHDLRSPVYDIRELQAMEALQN

B1: chr18:77733610:77733611:-_ENSG00000141759_ENST00000592957|hu_mus|FALSE|FALSE (ssRNA)
RNA: GGGAGUUCUACAGUCCGACGAUCCUCAUCUCACGGAUCCUCCAGCUCUACAGCAAUGUCGGGCUGCAGGGCCUUUCCAGAGGCUACGAGAGCAGAGUAUUUCUAUGUGGAAGAGGCUCUCAGUGUCCUUUGCACAGCCUGAGGCAACAGAGGAUUGAGCAUCA
B2: chr10:60895279:60895280:-_ENSMUSG00000020091_ENSMUST00000020288|mus_hu|FALSE|FALSE (ssRNA)
RNA: GGGAGUUCUACAGUCCGACGAUCCACUGGAAGAUGUUUAAUUAAAAAGUUGCUGUUCAAAAUUGUACUGAAAACAUAUCUAAAAAUAGGUCUGUAGUCAUCUUAAAAAUAAAAGGUCACUUCUCAGAUAAGAGGAGUGACAGACAACAGAGGAUUGAGCAUCA
B3: chr11:114320625:114320626:+_ENSG00000076043_ENST00000544827|hu_hu|motif|central (ssRNA)
RNA: GGGAGUUCUACAGUCCGACGAUCAACUCACGGUCUUCUCAUUUUCCCCAUUUUCUAUAAUUUUCCUCUUCUUUUCAUCGGUUUUUUUCUUGAAGAUGUUAUUUCGGUAAAACUGAAGCUCUUUGAUGCUUUCACUAAUGUCAUCAACAGAGGAUUGAGCAUCA
B4: chr18:74380996:74380997:+_ENSMUSG00000024560_ENSMUST00000025444|mus_hu|FALSE|FALSE (ssRNA)
RNA: GGGAGUUCUACAGUCCGACGAUCGUCGACGGGGACAGUCCCUCUGAUAAAGGCAGAUGGGCGGUCAACCGGUGGAUGGGCACAGGGAGAACCGGAGAAACAGAUGAGUGGAGGAACGGACACACGGGCACCGGGCGGCUCCCCCAACAGAGGAUUGAGCAUCA
B5: chr11:77336104:77336105:-_ENSG00000074201_ENST00000525064|hu_mus|hu_hu_hu_mus_False|8_78 (ssRNA)
RNA: GGGAGUUCUACAGUCCGACGAUCCUCACACAUUGCUGUGAACAUCGCCUCCAAUGCUGAUUUAUCACUGGGCACAAAUCGAAAUUCAGAAAUGGGUUCAACAUCAUCAUUGUCUUCCUCAUCUUCAUCAUCAGCAAGUUCUUUCAACAGAGGAUUGAGCAUCA
B6: chr9:15127005:15127006:-_ENSMUSG00000046111_ENSMUST00000161132|mus_mus|FALSE|FALSE (ssRNA)
RNA: GGGAGUUCUACAGUCCGACGAUCCCAGAUUGGAAUAGGGCUCCGAAAUGGACAGGAUUUUAAUAUGUGCUCUGCUUGUGCUAGCUGACAUACAUUUCCUACAGCUUCUGUAGUGUCAGUUUCAAUGAAGUUCUGAAUUGGCUUCAACAGAGGAUUGAGCAUCA
B7: chr17:65740002:65740003:+_ENSG00000130935_ENST00000581375|hu_hu|hu_hu_hu_mus_False|28_68 (ssRNA)
RNA: GGGAGUUCUACAGUCCGACGAUCAACAAAUCUUUCUUCCCUGGACGAACAGGAAGAUUCAUAUUAACUUUAUAAAAUAUCCAUCAAGUUAGGUGUGGUGGCCACACAGAGCUCCAGAGCACUUUGGGAGGUGGAUCUCUGAGUCAACAGAGGAUUGAGCAUCA
B8: chr7:7679991:7679992:-_ENSG00000106399_ENST00000396682|hu_hu|FALSE|FALSE (ssRNA)
RNA: GGGAGUUCUACAGUCCGACGAUCUGGGAUGAAUCUUUUCCAGCCUCCCUACGAAGCAGACAGGCUUGUCGAUGAAUUGAGCUAGCAUGCCGGCGUUGAUGCGCGACCUGGGCAAGUCCAUCAUGUCCACCAUGAUUAUGGUCCCAACAGAGGAUUGAGCAUCA
B9: chr7:10979719:10979720:-_ENSG00000189043_ENST00000339600|hu_hu|FALSE|FALSE (ssRNA)
RNA: GGGAGUUCUACAGUCCGACGAUCUGAUCUGGCGGAGCAUGUUUGCGGCAGAGGUCUCCGACUGGAAAGGAGAGAACCGACCUAGCCACCAGGCCCUAAGCUAAAAAUUAUCUGCAAUGAGACACUACGGACUUCCAAAGUCACCAACAGAGGAUUGAGCAUCA
B10: chr7:92027835:92027836:+_ENSG00000001629_ENST00000265742|hu_hu|FALSE|FALSE (ssRNA)
RNA: GGGAGUUCUACAGUCCGACGAUCAUUGAUGUUGGGGUCCUGGCCAGCUGAGUCAGGAUCACUAGAUGAGGGACAGAAAUCACUUCUUGCCUCACUGAGAGGGUGUGAGCUCAGGGUGUCAGUUGAAAAUGGGUCAUUCUCUGCCAACAGAGGAUUGAGCAUCA
B11: chr3:9412954:9412955:+_ENSG00000134077_ENST00000452837|hu_mus|hu_hu_hu_mus_False|38_108 (ssRNA)
RNA: GGGAGUUCUACAGUCCGACGAUCGGUUGAUACAUCCUCUUUGAUGGCUGGAUUUUCAUAAUAGUCCAAGAUAUGUGAAUCUGAAGUGCUGCUGGCAAACUCUUUUUUACCAUCUUUCUCAUCUGCUUUGUCUCCUUGUCCACACAACAGAGGAUUGAGCAUCA
B12: chr8:35901500:35901501:-_ENSMUSG00000031529_ENSMUST00000033929|mus_hu|FALSE|FALSE (ssRNA)
RNA: GGGAGUUCUACAGUCCGACGAUCUAUAUAGCAUGACCUGUCCUUGUGUGUAGGGCAGCCUGUUCCUCCUCCAAUUCCAUAAACAUAUUGGUUGCUUUUUGAGGAGUUUUCAGCAAAAUAAAUCCCGGCCCCAAACAUUCCUCCCAACAGAGGAUUGAGCAUCA
B13: chr9:101115835:101115836:-_ENSMUSG00000043154_ENSMUST00000075941|mus_hu|FALSE|FALSE (ssRNA)
RNA: GGGAGUUCUACAGUCCGACGAUCACUAUCAUAAAUCUUAGUUGGUAGUAGAGAAGUAUUGUGAUAACUGAGUCCUCCAAAGGUUUAAAUGAUUCAUUUUUCUGUGAAUGACAGAGAAACCUCGUUGCCCGCGGCUCCUCCUCCCAACAGAGGAUUGAGCAUCA
B14: chr2:220084271:220084272:-_ENSG00000198925_ENST00000396761|hu_hu|FALSE|FALSE (ssRNA)
RNA: GGGAGUUCUACAGUCCGACGAUCGGGUGAGGGGUGGGACAGAGAGUAGGAGCAGUCCCAGCAUGCAGUGCAGCAGCCCAAAGCCUCGGGCGAGGCAUCGCCCUUCAUCCCCCUUCAGGGCACAGCGAGAUGCGGGCCAGAGCUCAACAGAGGAUUGAGCAUCA
B15: 31526367_31530038_193_CDS_ENSMUSG00000039356_ENSMUST00000038474|mouse|control|control (ssRNA)
RNA: GGGAGUUCUACAGUCCGACGAUCGUAUCUGGUUUUCAAGGCUUUGACACAGAUCAGUUUGUUCACUCUCUCCACAGAGCCGGCCACAGACGCAAUGAGCUUCUCUUCCCCCAUGUAUGUCCCAUGGCCCCGCAUGAAGCCUGUCAACAGAGGAUUGAGCAUCA
B16: chr1:38489269:38489270:+_ENSG00000183520_ENST00000537711|hu_hu|motif|central (ssRNA)
RNA: GGGAGUUCUACAGUCCGACGAUCUUUGAAGUUACUAGAAAACGACAACAGAUUUUUGAUACAGAAUGACAAGGCUUAUCGGUAACACGUCAACGUUUUCGACGACUCUGAAAUUUAUAAAUAGCUGGGGAGUUCACCGUUUCUCAACAGAGGAUUGAGCAUCA
B17: chr11:43861564:43861565:+_ENSG00000149084_ENST00000278353|hu_hu|FALSE|FALSE (ssRNA)
RNA: GGGAGUUCUACAGUCCGACGAUCCAGUUUUGUAGCUACGAAGUAUGGCAGGACACUCUGCACAAAGACGCCCUUGCUCCUAUACUCCUCAUGGAGGCACUGAGAGAAGAAAUCUACAAAAGUCUUGGUUGCAGAAUAGAUGGUCAACAGAGGAUUGAGCAUCA
B18: 138659546_138659666_671_3pUTR_ENSMUSG00000050608_ENSMUST00000143971|mouse|control|control (ssRNA)
RNA: GGGAGUUCUACAGUCCGACGAUCGGUGCCACCAGUCUUGGGAUGGGGGUGGGAAGGUCAACUGUGCAUUAGGGGAGUGCGUUGGACAUGUCUGUGUCUUCAGGAGGUCACAGAGGCCACAGCUAGGCCAUUCAAAUAGAAGCCCAACAGAGGAUUGAGCAUCA
B19: chr4:140556289:140556290:+_ENSMUSG00000036622_ENSMUST00000037055|mus_mus|mus_mus_mus_hu_False|48_78 (ssRNA)
RNA: GGGAGUUCUACAGUCCGACGAUCGAUGGAGCUCACCAGGCCCCCUUUUGCCGUGCAGAACCCUGUCCGGGUCACCACUGCCAGGACACGGGGUCCCACAUAGGCCCGGGCCUGCAAGAUGAGGGUCCCGCAGAAGAGUGUGUGCAACAGAGGAUUGAGCAUCA
B20: 3121088_3121208_1293_3pUTR_ENSG00000088256_ENST00000078429|human|control|control (ssRNA)
RNA: GGGAGUUCUACAGUCCGACGAUCGUCUCCAUCCCGUCUCCCUGGGCCUGGGCGCUCAGACCAGGUUGUACUCCUUGAGGUUGAGCUGCAGGAUGGUGUCCUUCACGGCCGCGAACACGAAGCGGAUGUUCUCCGUGUCGGUGGCAACAGAGGAUUGAGCAUCA
B21: chr7:30656748:30656749:+_ENSG00000106105_ENST00000389266|hu_mus|FALSE|FALSE (ssRNA)
RNA: GGGAGUUCUACAGUCCGACGAUCAUCAGGAGAUAUUCCAACCUUCGUGAGGUAGAGGUAGAUGCGGCCAAUAAAAUAGCCUAAUACUGAGUUGUUAAUCACACCCUGUUCAACAGCAUCUCCCAGACGCAUCUUCCGAGCAGACAACAGAGGAUUGAGCAUCA
B22: 77918886_77921563_1784_CDS_ENSG00000167291_ENST00000310924|human|control|control (ssRNA)
RNA: GGGAGUUCUACAGUCCGACGAUCCAGUUGUUUCUCCAUGUCCUCGUCCCGGGGUGAGCUGACGAAGAUCGUGUUCUGCAUCAAACCCACAAAGCACCAGAAGGUGUCUGACUCAUCCAGGACCUCGGCCAAGAUGGGCGCCACCAACAGAGGAUUGAGCAUCA

Molecular target: T1, UNK ZnF1-3
Assay: nsRBNS (natural sequence RNA bind-n-seq); RBNS binding buffer (assumed for nsRBNS): 25 mM Tris pH 7.5, 150 mM KCl, 3 mM MgCl2, 0.01% Triton X-100, 500 ug/ml BSA, 20 U/ml SUPERase-In, 4 C; UNK is unkempt and MSI1 is Musashi-1; names of the RNAs are library labels; protein concentration not given here; high values mean tight binding

Binder	binding signal [enrichment R]
B1	0.833
B2	1.66
B3	0.459
B4	1.99
B5	0.91
B6	0.664
B7	1.3
B8	1.02
B9	1.22
B10	1.33
B11	0.627
B12	1.26
B13	0.806
B14	1.12
B15	0.926
B16	2.6
B17	1.18
B18	1.69
B19	1.1
B20	0.848
B21	1.14
B22	1.02
